Where “and” joins values, the source holds several entries; their conditions need not be identical. Equal entries are not always repeated. Inconclusive results, whose numbers are uncertain, are shown with a selection of clear calls. For part of these data: Potencies beside an inconclusive call are fits to weak or partial responses and may not hold up. Calls of active or inactive are those of the source. Unless noted, the call rests on the fitted dose curve; in most records, active means well fitted curve in the direction sought with a large enough effect; inconclusive means small, poorly fitted or top-dose-only effect, or another doubt; inactive means no such curve, though single readings can be large; an effect the other way counts as inactive or inconclusive.
How the values were obtained:
[1] = target: Cytochrome P450 2D6 (Homo sapiens) (UniProt P10635); assay: Cytochrome P450 family 2 subfamily D member 6 (CYP2D6) small molecule antagonists: luciferase biochemical (cell-free) qHTS assay (AID 1645840; active means well fitted curve in the direction sought with a large enough effect in the repeat runs; inconclusive means weak or mixed curves; inactive means no such curve, though single readings can be large; an effect the other way counts as inactive or inconclusive; further: nearly all actives have a fitted effect of over 55% in size)
How it was run: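 P450-Glo CYP2D6 system: proluciferin substrate converted by enzyme to luciferin, read by luminescence proportional to activity. Enzyme-substrate mix with compound 10 min at room temperature, then NADPH regeneration 1 h before detection reagent.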

[2] = target: Cytochrome P450 2C9 (Homo sapiens) (UniProt P11712); assay: Cytochrome P450 family 2 subfamily C member 9 (CYP2C9) small molecule antagonists: luciferase biochemical (cell-free) qHTS assay (AID 1645842; active means well fitted curve in the direction sought with a large enough effect in the repeat runs; inconclusive means weak or mixed curves; inactive means no such curve, though single readings can be large; an effect the other way counts as inactive or inconclusive; further: nearly all actives have a fitted effect of over 55% in size)
How it was run: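 P450-Glo CYP2C9 system: proluciferin substrate with enzyme in mix containing 0.4% BSA, 10 min at room temperature, then NADPH regeneration solution added and incubated 1 h at 37C. Detection reagent stopped reaction; luminescence read after 20 min as RLU.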

[3] = Primary qHTS for inhibitors of nuclear receptor binding SET domain protein 2 (NSD2) in an RCH-ACV wild type WT cells (2C) (AID 1645877); details: activity change, negative = cell killing: at 44.9 µM (top of the series); further: nearly all actives have a fitted effect of over 70% in size
[4] = test system: HEK293; assay: Cytotoxic Profiling of Annotated Libraries Using Quantitative High-Throughput Screening (AID 1296008); details: Five cell lines viability, CellTiter-Glo ATP luminescence, 48-72 h; max response: hits give low values; further: nearly all actives have a fitted effect of over 60% in size; on max response: on the % scale 0 is the no-effect control and ±100 the full control effect
How it was run: (§1)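 Cells exposed to compounds for 48 or 72 hr at 37 degrees Celsius. Viability read as ATP-coupled luminescence with CellTiter-Glo after 10 min at room temperature.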

[5] = test system: HaCat; assay: as above; details: Five cell lines viability, CellTiter-Glo ATP luminescence, 48-72 h; max response: hits give low values
How it was run: as §1

[6] = test system: KB-3-1; assay: as above; details: Five cell lines viability, CellTiter-Glo ATP luminescence, 48-72 h; max response: hits give low values
How it was run: as §1

[7] = test system: NIH3T3; assay: as above; details: Five cell lines viability, CellTiter-Glo ATP luminescence, 48-72 h; max response: hits give low values
How it was run: as §1

[8] = test system: CAOV3; assay: Primary qHTS to identify gynecologic anti-cancer compounds using libraries of approved drugs and bioactive compounds (AID 1345084); details: Gynecologic cancer cell panel viability, ATPlite luminescence, 48 h; series mostly up to 57.5 µM; further: nearly all actives have a fitted effect of over 55% in size; on activity change, negative = cytotoxicity: on the % scale 0 is the no-effect control and ±100 the full control effect
How it was run: (§2)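 Cells, 1,000 per well, were allowed to settle for 16 h at 37 C before compound addition. Five concentrations were tested for 48 h, and viability was read by ATPlite luminescence after 15 min at room temperature.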

[9] = test system: Hek293T; assay: as above; details: Gynecologic cancer cell panel viability, ATPlite luminescence, 48 h, control line for the selectivity index; series mostly up to 57.5 µM
How it was run: as §2

[10] = test system: OV90; assay: as above; details: Gynecologic cancer cell panel viability, ATPlite luminescence, 48 h; series mostly up to 57.5 µM
How it was run: as §2

[11] = test system: PA-1; assay: as above; details: Gynecologic cancer cell panel viability, ATPlite luminescence, 48 h; series mostly up to 57.5 µM
How it was run: as §2

[12] = test system: SKOV3; assay: as above; details: Gynecologic cancer cell panel viability, ATPlite luminescence, 48 h; series mostly up to 57.5 µM
How it was run: as §2

[13] = P-glycoprotein substrates identified in KB-8-5-11 adenocarcinoma cell line, qHTS therapeutic library screen (AID 1346987); further: nearly all actives have a fitted effect of over 65% in size
How it was run: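 In this qHTS, P-gp-rich KB-8-5-11 cells received library compounds across a concentration range. Viability was quantified by luminescence after 72 h at 37 degree C.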

[14] = Primary qHTS for inhibitors of nuclear receptor binding SET domain protein 2 (NSD2) in an isogenic RCH-ACV NSD2 p.E1099K mutant (9B) (AID 1645876); further: nearly all actives have a fitted effect of over 70% in size
[15] = Primary fluorescence-based thiol-reactive (MSTI) qHTS assay for identification of artifact compounds. (AID 1845221);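 further: thiol-reactive compounds lower the probe fluorescence signal; nearly all actives have a fitted effect of over 65% in size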
How it was run: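 qHTS titration of compound; 4 uM MSTI, PBS pH 7.4, 2% DMSO; 1 h RT, dark; fluorescence 525/598 nm; normalized to Acetyl-MSTI and MSTI; 4-parameter Hill fit.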

[16] = Primary redox qHTS assay for identification of artifact compounds. (AID 1845223)
How it was run: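 Redox-cycling detection via DTT (250 uM final) oxidation coupled to Amplex Red (25 uM)/HRP (250 mU/mL) in HBSS. 15 min preincubation plus 30 min after DTT, room temperature. Ex/Em 525/598 nm; 4-parameter Hill fit against DMSO and 10 uM DA3003.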

[17] = test system: Tov-21-G; assay: Primary qHTS to identify gynecologic anti-cancer compounds using libraries of approved drugs and bioactive compounds (AID 1345084); details: Gynecologic cancer cell panel viability, ATPlite luminescence, 48 h; activity change, negative = cytotoxicity: at 57.5 µM (top of the series); further: nearly all actives have a fitted effect of over 55% in size; on activity change, negative = cytotoxicity: on the % scale 0 is the no-effect control and ±100 the full control effect
How it was run: as §2

[18] = test system: Es-2; assay: as above; details: Gynecologic cancer cell panel viability, ATPlite luminescence, 48 h; series mostly up to 57.5 µM
How it was run: as §2
Potency means the concentration at half of the fitted maximal effect; tags describe the fitted curve by direction and shape.

UniProt P10635, sequence (P10635 whole entry, looked up): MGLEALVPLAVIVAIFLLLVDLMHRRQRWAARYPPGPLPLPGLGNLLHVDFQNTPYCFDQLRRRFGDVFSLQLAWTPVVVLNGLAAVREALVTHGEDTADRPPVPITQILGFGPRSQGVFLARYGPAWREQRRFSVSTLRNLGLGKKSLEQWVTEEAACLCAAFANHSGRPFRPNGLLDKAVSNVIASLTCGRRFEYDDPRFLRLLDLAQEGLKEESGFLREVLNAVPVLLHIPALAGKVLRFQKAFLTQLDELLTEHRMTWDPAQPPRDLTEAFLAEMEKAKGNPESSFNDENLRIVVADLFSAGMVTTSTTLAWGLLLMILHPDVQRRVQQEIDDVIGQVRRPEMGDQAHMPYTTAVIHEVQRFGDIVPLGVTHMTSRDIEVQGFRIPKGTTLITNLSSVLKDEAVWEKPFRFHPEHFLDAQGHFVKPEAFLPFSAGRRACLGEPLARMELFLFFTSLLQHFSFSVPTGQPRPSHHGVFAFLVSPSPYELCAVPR
UniProt P11712, sequence (P11712 whole entry, looked up): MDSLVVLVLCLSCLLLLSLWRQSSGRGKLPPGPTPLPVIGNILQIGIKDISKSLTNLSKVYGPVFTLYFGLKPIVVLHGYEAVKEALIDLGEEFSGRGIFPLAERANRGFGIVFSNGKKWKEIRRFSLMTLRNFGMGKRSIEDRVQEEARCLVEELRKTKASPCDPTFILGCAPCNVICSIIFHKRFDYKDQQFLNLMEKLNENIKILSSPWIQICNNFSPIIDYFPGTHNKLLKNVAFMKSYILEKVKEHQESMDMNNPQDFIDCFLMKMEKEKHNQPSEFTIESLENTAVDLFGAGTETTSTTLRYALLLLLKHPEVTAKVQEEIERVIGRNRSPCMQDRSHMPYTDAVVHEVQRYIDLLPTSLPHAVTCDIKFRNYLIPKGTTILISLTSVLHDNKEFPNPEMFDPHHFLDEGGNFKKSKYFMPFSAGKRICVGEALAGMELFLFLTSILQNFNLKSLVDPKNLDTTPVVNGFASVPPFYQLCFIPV

Fc1ccc2[nH]ccc2c1-c1nc(N2CCOCC2)c2sc(CN3CCN(CC4CC4)CC3)cc2n1
active: Potency [3] 365 nM and 833 nM | Potency [4] 18.4 µM
inconclusive: Potency [1] 16.9 µM [inhibitor, single point] | Potency [2] 37.9 µM [inhibitor, single point] | Potency [5] 16.4 µM [inhibitor, partial curve, poor fit] | Potency [6] 25.9 µM [inhibitor, single point] | Potency [7] 18.4 µM [inhibitor, single point] | Potency [8] 35.5 µM [cytotoxic, partial curve, poor fit] | Potency [9] 22.4 µM [cytotoxic, single point] | Potency [10] 17.8 µM [cytotoxic, partial curve] | Potency [11] 39.8 µM [cytotoxic, single point] | Potency [12] 39.8 µM [cytotoxic, single point]

CCC(=O)Nc1cccc(Oc2nc(Nc3ccc(N4CCN(C)CC4)cc3OC)ncc2Cl)c1
active: Potency [13] 16.4 µM | Potency [15] 1.89 µM
inconclusive: Potency [1] 3.38 µM [inhibitor, partial curve, poor fit] | Potency [14] 7.42 µM [inhibitor, partial curve] | Potency [3] 11.8 µM [inhibitor, single point] | Potency [16] 8.44 µM [activator, single point] | Potency [4] 16.4 µM [inhibitor, single point] | Potency [5] 10.3 µM [inhibitor, partial curve, poor fit] | Potency [6] 23.1 µM [inhibitor, single point] | Potency [7] 29.1 µM [inhibitor, single point] | Potency [8] 22.4 µM [cytotoxic, partial curve, poor fit] | Potency [11] 39.8 µM [cytotoxic, single point] | Potency [12] 39.8 µM [cytotoxic, single point] | Potency [17] 39.8 µM [cytotoxic, single point]

CC1(C)CC[C@]23CO[C@@]4(CCC5[C@@]6(C)CC[C@H](O[C@@H]7OC[C@H](O[C@@H]8O[C@H](CO)[C@@H](O)[C@H](O)[C@H]8O)[C@H](O)[C@H]7O[C@@H]7O[C@H](CO)[C@@H](O[C@@H]8O[C@H](CO)[C@@H](O)[C@H](O)[C@H]8O)[C@H](O)[C@H]7O)[C@@](C)(CO)C6CC[C@@]5(C)[C@]4(C)C[C@H]2OC2OCC(O)C(O)C2O)C3C1 (stereo partly drawn)
inconclusive: Potency [13] 3.47 µM [inhibitor, single point] | Potency [5] 4.36 µM [inhibitor, single point] | Potency [7] 4.9 µM [inhibitor, single point] | Potency [8] 0.0501 µM [rising, partial curve, poor fit] | Potency [18] 6.31 µM [cytotoxic, single point] | Potency [9] 3.98 µM [cytotoxic, single point] | Potency [10] 3.16 µM [cytotoxic, single point] | Potency [11] 3.98 µM [cytotoxic, single point] | Potency [12] 6.31 µM [cytotoxic, single point] | Potency [17] 6.31 µM [cytotoxic, single point]
inactive: activity change, negative = thiol reactive [15] 227% [at 11.5 µM] | max response [6] -11.5%
active: Potency [4] 2.45 µM

CNCc1ccc(C)c(NC(=O)c2ccc(Nc3nc(-c4ccccc4)c4ccccc4n3)cc2)c1
inactive: Potency [18]
active: Potency [7] 18.4 µM
inconclusive: Potency [13] 16.4 µM [inhibitor, single point] | Potency [4] 20.6 µM [inhibitor, single point] | Potency [5] 29.1 µM [inhibitor, partial curve, poor fit] | Potency [6] 23.1 µM [inhibitor, single point] | Potency [8] 5.62 µM [cytotoxic, single point] | Potency [11] 31.6 µM [cytotoxic, single point] | Potency [12] 31.6 µM [cytotoxic, partial curve, poor fit]

— PubChem BioAssay (NCATS)
